Results taken from the supplement of paper PMC12632987.
Whole data set: some 4,500 sequences, median “median log2 fold change of GCK-ALFA target abundance (FLAG IP / Myc IP barcode read proportion)” near 0.078, cut for the lowest 2% near -0.6. The list shows a part of the results.

B1: GBRAP_160_4747 (protein)
chain: KEELEKLLKEVKEIFDEGIEMLKESPASEAPTIIRGTMGEVIMEVFSSEAASDELEDEVAAIADKAEAEAAANADAPVEVHIAILEKAKEEILAIIEKEI
B2: GBRAP_14_3803 (protein)
chain: SEERKKAVEEITEETIALVREVLADAPEEVRAAVEALVEDFRRTVIEKNLNPDEIAELGDELVARVAEVLADAPEDVRARVLAVVAVNTGEVVLETEELE
B3: GBRAP_78_6638 (protein)
chain: SIEEKLEEALKLVDEAAKLALELPEELRNEILDELVDAASDLEEAIEKGGDLEEIKEAAEHLEKAIELLEKENDPRLEPLLKLAKEALKLVKEVEKEVKK
B4: GBRAP_160_4687 (protein)
chain: SEKVKKAEEFIEEEFEEVVEIHEEVTPEELAAAVRVAFGRIKLELEELGLLTDELGELIDEEEEEIVKYILENPNITKEELRKMLEEAKKKIVEKLKEIS
B5: GBRAP_39_5637 (protein)
chain: EEEEEAEDIYSYLEALGAKLLVERKISLDELLDETYAAALAAVADDPELQALLDELRELALKGDDMDKLAAAGAFARVAEGAPREEARRDLKLLIELFKK
B6: GBRAP_160_4217 (protein)
chain: MELVEKLVEIVREEFEEALELIEGESEEERRVILDVAVGNVILEAMEIPGVTDEMEEVVEEKSRELAEELLEARDKSEEERRKLIEERVEELREELEKLE
B7: GBRAP_14_3842 (protein)
chain: SEELRKLLEEVVDRAVAEVAALAPPEHADRVAALRDALLAAVDEGLKTGDLEEMEERLIAVARATVTELFADLPETERAALVAAAEDALIEGFEEVEKKL
B8: GBRAP_125_3108 (protein)
chain: SEEEILEALKRLAKALGFSEEEAEEAAELARKFSVKQTLYALFLAEGEEELADLVEKLTEEQAKRALLKLAKWLEENPNATKEEVLEQAKKILEEELAKQ
B9: GBRAP_106_2561 (protein)
chain: SKLEELKKFLEEKMEEAMATVEAVTEAIVKRFGVDREEAEAAVRAHALAYVASQLKEKAKELGINNPELIKKIEETMRANRYKSKEEIIKLAKEVLDEGL
B10: GBRAP_128_3205 (protein)
chain: ASPAAVAELRALADEVAETKTDEAIEAFAAAIAEALRAGELDLDSLEEVVTYLGSKLDEDTIVKAEDALRAALADVGPEALATALGALGEVLMEKEEEEE
B11: GBRAP_11_2725 (protein)
chain: KKETILKHAKKAEELAKEIEKLIKEGPTEEELKKLAKEAEKLAKEAKKDGLPQSVVDTLEIAAELLKKAIEDPENAEEYLRQAAAAFRVAAGQLLLLAEE
B12: GBRAP_128_3168 (protein)
chain: SSEEIVKKVEELVEEMLKADDEEFRKLAEEIVDIIGEADLETAEKIVEIIIKNLPKLSEEKLDILMDVIREKRPEFSPEKQELLAEVEVEAGERILELEE
B13: GBRAP_160_3995 (protein)
chain: SEKKKKLLEKIKEILEETYELMKGESPEERLAIARVAAGDILLELFESELVSDETEEKIDEVLDEFVATVEANPDMSDEELKELLEETLEKIEKIIEENS
B14: GBRAP_78_6630 (protein)
chain: EVEELIDKAIEKLGEAAKLTVVLPEEDRNELLGLIVDAESDLLEAEEEGGDLEKLEEAKKHLEEALALVEALNDERAKPIKEELEKALKLLEEAIKLLKK
B15: GBRAP_139_3721 (protein)
chain: SHEEEIIEEAKKIVKENKDNIELLAKKIAELISKVDDETALKIARAVAEEIKDWSWEKFEEFIEKVSEELKKLGLSEDDILAIEGELEAVFAKIELEKEK
B16: GBRAP_11_2912 (protein)
chain: KKELLEELAKKAEELVEKLKELLEEGVENEELLEEALKIAEEALKLAKKNLDESTVKLAEELVELLKKALEDPENAEQYVKEALAVARVLLGQILLEIEE
B17: GBRAP_48_5814 (protein)
chain: KKLDLEKLEKLVEEKVEEMYELYEEAKKEGLSEEEILRMIRAELGDLALELEEAGYEKAADYLLDPENREELAKKLLELFKEGKKEEAKKLLLEKLLEAE
B18: GBRAP_11_2624 (protein)
chain: KKEKLKEIAKLAEEAAELAKKLLEKGVDDEELLKELKEKIEELKKLVKKYADESDQKDVEIAEELFKKSLEDKENAEKYLKELLAALRVLAGNYLLEIEE
B19: GBRAP_128_3397 (protein)
chain: GQEEKVKEAKKLIDEIVNSSVEEAKELAKKFMELFGELDEEAREEVAEYFESKLPKLTAEKLDVVADVIREMRPKLDEEAANIAADMEVAALNQAEEKEE

These binders were tested against GABARAP, O95166 (assay: median log2 fold change of GCK-ALFA target abundance (FLAG IP / Myc IP barcode read proportion) (log2 ratio); each designed protein is fused to an ALFA-tag nanobody in HEK293 cells to bring the named protein to FLAG-tagged glucokinase (GCK); Myc marks an untargeted standard; higher = target protein stabilised (more abundant)). Details: target protein: 3xFLAG-MCP-GCK-ALFA reporter; HEK293 landing pad (RPLP).
GABARAP, O95166, sequence (O95166 whole entry, the tested form may be a part): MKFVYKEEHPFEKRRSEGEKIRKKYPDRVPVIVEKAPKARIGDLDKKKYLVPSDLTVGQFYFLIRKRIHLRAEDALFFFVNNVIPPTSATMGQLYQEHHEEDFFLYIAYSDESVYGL
Experimental: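 LABEL-seq trans screen in HEK293 landing-pad cells. Each de novo designed 100-aa effector handle, binding the indicated effector (E3 ligase, DUB or autophagy protein), is fused to a constant NbALFA target handle and induced with 2 ug/mL doxycycline. A FLAG-MCP-GCK-ALFA target and a Myc-MCP standard reporter were transfected, and after 48 h circRNA barcodes were recovered by anti-FLAG and anti-Myc IP and sequenced. The value is the median across barcodes (at least 3 per design) of log2(FLAG/Myc read-proportion ratio), with the two transfection replicates pooled. Negative values mean degradation and positive values mean stabilisation of the target.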

Binder | median log2 fold change
B1 | -0.16
B2 | -0.0874
B3 | 0.146
B4 | 0.26
B5 | 0.205
B6 | -0.6
B7 | 0.179
B8 | -0.437
B9 | -0.179
B10 | 0.248
B11 | 0.289
B12 | 0.0404
B13 | -0.00842
B14 | 0.179
B15 | -0.231
B16 | 0.422
B17 | 0.0525
B18 | 0.269
B19 | 0.202
